Reference: the supplement of paper PMC8285479
Counter-ions that a name gives are not always drawn. ± gives the standard deviation of the averaged measurements. Whole data set: some 1,900 compounds, median “normalised cell viability (NPI; 0 = phenylarsine oxide control, 1 = DMSO control)” near 1, cut for the lowest 2% near 0.039. The list shows a part of the results.

Tested on: NCI-H1944
Experiment: normalised cell viability (NPI; 0 = phenylarsine oxide control, 1 = DMSO control) (fraction of DMSO control); NCI-H1944 is a non-small cell lung cancer line; higher = more viable cells (less compound toxicity)
Settings: 6 days
[1] = glucocorticoid arm: hydrocortisone 2.75 uM co-treatment, compound 1 µM
[2] = glucocorticoid arm: hydrocortisone 2.75 uM co-treatment, compound 5 µM
[3] = glucocorticoid arm: hydrocortisone 2.75 uM pre-treated 2 days and continued, compound 1 µM
[4] = glucocorticoid arm: hydrocortisone 2.75 uM pre-treated 2 days and continued, compound 5 µM
[5] = glucocorticoid arm: vehicle, compound 1 µM
[6] = glucocorticoid arm: vehicle, compound 5 µM
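Also: CTB read-out in 384-well plates, mean of triplicate wells, normalised per plate against 1 µM phenylarsine oxide and 0.1% DMSO, compounds added 24 h after seeding.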

| Structure (SMILES) | normalised cell viability [1] | normalised cell viability [2] | normalised cell viability [3] | normalised cell viability [4] | normalised cell viability [5] | normalised cell viability [6] |
| --- | --- | --- | --- | --- | --- | --- |
| Cc1ccc(OCC(O)C(C)NC(C)C)c2c1CCC2 (configuration not stated) [ICI 118,551 hydrochloride] | 0.996 ± 0.013 | 1.01 ± 0.038 | 1.003 ± 0.0058 | 1.05 ± 0.078 | 0.993 ± 0.001 | 1.01 ± 0.015 |
| NC(C(=O)O)C(O)C(=O)O (racemic) [DL-threo-beta-hydroxyaspartic acid] | 1.01 ± 0.011 | 1.01 ± 0.028 | 1.01 ± 0.022 | 1.01 ± 0.018 | 1.003 ± 0.0061 | 1.001 ± 0.0081 |
| O=C(O)C1=CC(=C(c2ccc(O)c(C(=O)O)c2)c2ccc(O)c(C(=O)O)c2)C=CC1=O [Aurintricarboxylic acid] | 0.9873 ± 0.0042 | 1.02 ± 0.011 | 0.9853 ± 0.0042 | 1.025 ± 0.0071 | 0.98 ± 0.016 | 0.9767 ± 0.0065 |
| C[C@H](CS)C(=O)N1CCC[C@H]1C(=O)O [Captopril] | 1.01 ± 0.019 | 1.02 ± 0.028 | 1.01 ± 0.018 | 1.03 ± 0.035 | 1.02 ± 0.038 | 1.01 ± 0.01 |
| Nc1nc(N)c2nc(-c3cccc(O)c3)c(-c3cccc(O)c3)nc2n1 | 1.013 ± 0.0058 | 0.996 ± 0.036 | 1.01 ± 0.015 | 1.01 ± 0.03 | 0.991 ± 0.007 | 0.992 ± 0.0066 |
| Cn1cnc2c(F)c(Nc3ccc(Br)cc3Cl)c(C(=O)NOCCO)cc21 [AZD6244 (Selumetinib)] | 0.636 ± 0.0087 | 0.558 ± 0.018 | 0.667 ± 0.013 | 0.675 ± 0.031 | 0.701 ± 0.013 | 0.545 ± 0.048 |
| NC(=O)c1ccccc1 [Benzamide] | 1 ± 0.013 | 1 ± 0.016 | 1.003 ± 0.0058 | 0.9935 ± 0.0078 | 0.9957 ± 0.0075 | 0.9973 ± 0.0046 |
| NC(N)=NC(N)=Nc1ccccc1 [1-Phenylbiguanide] | 0.9727 ± 0.0086 | 0.976 ± 0.0044 | 0.996 ± 0.013 | 0.97 ± 0.014 | 0.9833 ± 0.0097 | 0.9757 ± 0.0025 |
| NCCc1ccc(O)c(O)c1 [Dopamine hydrochloride] | 0.9903 ± 0.0035 | 0.973 ± 0.022 | 0.9897 ± 0.0071 | 0.987 ± 0.013 | 0.976 ± 0.006 | 0.9827 ± 0.0035 |
| NCCc1ccc(O)c(O)c1 [Dopamine HCl] | 1.02 ± 0.016 | 1.01 ± 0.015 | 1.017 ± 0.0058 | 1.02 ± 0.015 | 0.998 ± 0.0035 | 0.998 ± 0.0035 |
| C[C@H](Cc1ccc(O)c(O)c1)[C@@H](C)Cc1ccc(O)c(O)c1 | 0.996 ± 0.013 | 1.02 ± 0.02 | 0.998 ± 0.013 | 1.04 ± 0.058 | 1.013 ± 0.0058 | 1.02 ± 0.011 |
| CCCCCC(O)CCCC(=O)O (configuration not stated) [5-hydroxydecanoic acid sodium salt] | 1.01 | 1.02 | 1.02 ± 0.018 | 1.01 ± 0.015 | 1 | 1.006 ± 0.0063 |
| N#CC1(c2ccc(NC(=O)c3cccnc3NCc3ccncc3)cc2)CCCC1 [Apatinib (YN968D1)] | 0.8793 ± 0.0038 | 0.568 ± 0.033 | 0.908 ± 0.015 | 0.708 ± 0.061 | 0.92 ± 0.026 | 0.53 ± 0.1 |
| OC[C@@H](O)CN1CCN(c2ccccc2)CC1 [Levodropropizine] | 1.007 ± 0.0058 | 0.993 ± 0.0089 | 1.027 ± 0.0058 | 0.996 ± 0.025 | 1.002 ± 0.0072 | 0.9823 ± 0.0045 |
| COc1cc(N)c(Cl)cc1C(=O)OCCN1CCCCC1 | 0.9993 ± 0.0097 | 1.013 ± 0.0058 | 1.01 ± 0.013 | 1.05 ± 0.071 | 0.9953 ± 0.0057 | 1.01 ± 0.017 |
| CC[C@H](c1ccc(O)cc1)[C@@H](CC)c1ccc(O)cc1 [Hexestrol] | 1.03 ± 0.015 | 0.995 ± 0.022 | 1.04 ± 0.01 | 1.01 ± 0.016 | 1 ± 0.0087 | 0.9943 ± 0.006 |
| Nc1ncnc2c1ncn2C1CCCC1 [9-cyclopentyladenine monomethanesulfonate] | 1.01 ± 0.012 | 1.01 ± 0.017 | 0.9837 ± 0.0021 | 1.02 ± 0.028 | 0.9907 ± 0.0021 | 1.002 ± 0.0068 |
| O=C1NC(c2cccc([N+](=O)[O-])c2)=CCN1c1ccccc1O [Icilin] | 0.9937 ± 0.0093 | 0.991 ± 0.011 | 0.9937 ± 0.0042 | 0.966 ± 0.015 | 0.978 ± 0.0036 | 0.981 ± 0.0044 |
| CN1CCN(C(=O)c2cc3cc(Cl)ccc3[nH]2)CC1 | 1.027 ± 0.0058 | 1.023 ± 0.0058 | 1.013 ± 0.0058 | 1.03 ± 0.021 | 1.007 ± 0.0058 | 1.01 ± 0.01 |
| CCCN(CC1CC1)c1nc(C)nc(Nc2c(Cl)cc(Cl)cc2Cl)c1Cl | 1.02 ± 0.01 | 1.043 ± 0.0058 | 1.02 ± 0.021 | 1.03 ± 0.021 | 0.988 ± 0.0036 | 0.9957 ± 0.0035 |
| Cn1nnc2c(C(N)=O)ncn2c1=O [Temozolomide] | 1.01 ± 0.01 | 1.01 ± 0.017 | 1.001 ± 0.0085 | 1.02 ± 0.01 | 1.003 ± 0.0058 | 1.01 |
| C[C@]12CC[C@H](O)CC1=CC[C@@H]1[C@@H]2CC[C@]2(C)C(c3cccnc3)=CC[C@@H]12 [Abiraterone] | 1.043 ± 0.0058 | 1.18 ± 0.023 | 1.05 | 1.11 ± 0.025 | 0.848 ± 0.021 | 1.05 ± 0.011 |
| C=C1C(=O)O[C@H]2[C@H]1CC/C(C)=C/CC[C@@]1(C)O[C@@H]21 [Parthenolide] | 1.02 ± 0.011 | 1.04 ± 0.032 | 1.02 ± 0.021 | 1.07 ± 0.064 | 1.01 | 0.785 ± 0.08 |
| Nc1nc(N)c2nc(-c3ccccc3)c(N)nc2n1 [Triamterene] | 1.01 | 0.997 ± 0.02 | 1.01 ± 0.024 | 1.03 ± 0.01 | 1.017 ± 0.0058 | 1.003 ± 0.0058 |
| Cc1ccc(C(=O)Cn2c3c(sc2=N)CCCC3)cc1 [Pifithrin-α] | 1.027 ± 0.0058 | 1.1 ± 0.015 | 1.02 ± 0.011 | 1.07 ± 0.011 | 1.007 ± 0.0058 | 1.023 ± 0.0058 |
| CC(C)(C)NC(=O)[C@H]1CC[C@H]2[C@@H]3CC[C@H]4NC(=O)C=C[C@]4(C)[C@H]3CC[C@]12C [Finasteride] | 0.991 ± 0.005 | 1.01 ± 0.014 | 0.9953 ± 0.0031 | 1 ± 0.015 | 1 ± 0.017 | 1.03 ± 0.044 |
| C=CC[N+]1([C@H]2C[C@H]3[C@@H]4CC[C@H]5C[C@H](O)[C@@H](N6CCOCC6)C[C@]5(C)[C@H]4CC[C@]3(C)[C@H]2OC(C)=O)CCCC1 [Rocuronium Bromide] | 1.02 ± 0.01 | 1.03 ± 0.025 | 1.03 ± 0.011 | 1.03 ± 0.01 | 0.9947 ± 0.0059 | 0.9973 ± 0.0031 |
